Results: PubChem BioAssay AID720537 (National Center for Advancing Translational Sciences (NCATS), 2013)
About 55 (3%) of roughly 1,600 compounds were called active. The shares of active, inactive and inconclusive entries below differ from those in the screen. The call rests on the fitted dose curve; in most records, active means well fitted inhibition curve with a large enough effect; inconclusive means small, poorly fitted or top-dose-only effect; inactive means no such curve, though single readings can be large or run the other way. Potencies of inconclusive entries are left out as doubtful fits.

Assay: qHTS for Inhibitors of TGF-b: Hit Validation in HepG2 Cells using COP promoter; further: nearly all actives have a fitted effect of over 70% in size
Details: HepG2 COP-GFP TGF-b reporter, GFP fluorescence, 18 h, cells stimulated by added recombinant TGF-beta; activity, negative = inhibition: at 46.1 µM (top of the series)
From the text: TGF-b is a main component in the TGF-b signaling pathway which plays diverse roles in cellular and development pathways. TGF-b is the mediated by the transcription factors Smads. Although the Smad-dependent pathway is the primary canonical TGF-b signaling node, TGF-b1 can also activate alternative signaling pathways, including those involving MAPK (ERK, JNK and p38). This interaction may mediate or enhance Smad-dependent responses, or can exert Smad-independent effects. The complexity of this signaling cascade allows the TGF-b superfamily to perform unique, overlapping or redundant functions. We believe that targeting the TGF-beta pathway at the Smad-transcription factor level may eliminate the consequences of disrupting the entire pathway and offer specificity without affecting other signaling pathways. Smad3 is the primary transducer of TGF-b's signals and Smad3 regulates many functions attributed to TGF-b signaling. We hypothesize that Smad3 inhibitors will selectively eliminate Smad3-specific TGF-beta signals without undesired off-target effects. We aim to identify Smad3-small molecule antagonists using a quantitative high throughput screening (qHTS) approach. A high-throughput assay was developed to screen the NIH Molecular Libraries Small Molecule Repository (MLSMR). This is a cell based assay, where TGF-b is tagged with GFP. This assays tests the hits identified from the primary screen in HepG2 cells, but using a cop promoter rather than a caga promoter. True actives from the primary screen will also be active in this assay. NIH Chemical Genomics Center [NCGC] NIH Molecular Libraries Probe Centers Network [MLPCN] MLPCN Grant: MH087449 Assay Submitter (PI): Sushil Rane, National Institute of Diabetes and Kidney Diseases
Suspensions of trypsinized HEPG2 COP-GFP cells were dispensed into white, tissue culture-treated, solid 1536-well plates at 5uL/well (1000 cells/well final concentration) in DMEM medium supplemented with 1% FBS. Plates were incubated at 37 degrees C for 2 hours, after which 23 nL of compounds or DMSO were delivered to each well using a pin tool. One uL of recombinant TGF-beta in DMEM (1% FBS) was then dispensed (500 pg/mL final concentration), and plates were incubated at 37 degrees C for 18 hours. The plates were measured on an Acumen eX3 Explorer plate reader for GFP fluorescence (ex488/em500-530). GFP values were calculated by determining the mean GFP fluorescence of individual cells, and compiling these values for each well to determine a total well GFP signal. The %Activity was determined from the corrected fluorescence values. A titration of the known TGF-B inhibitor SB431542 was included to monitor plate performance, while unstimulated HEPG2 (-TGF-B) control wells were used to normalize %Activity of identified inhibitors; unstimulated wells corresponded to 100%Activity (full inhibition), while stimulated cell controls (+DMSO) were used to normalize 0%Activity (no inhibition). Concentration-response curves were fitted to the signals arising from the resulting fluorescence. The concentration-effect curves were then classified based on curve quality (r2), response magnitude and degree of measured activity, and compounds were subsequently categorized based on their curve class.
Potency means the concentration at half of the fitted maximal effect; tags describe the fitted curve by direction and shape.

SMILES	Potency	activity, negative = inhibition
CC(=O)N1CCc2c(sc(NC(=O)c3ccc([N+](=O)[O-])o3)c2C#N)C1	inconclusive [inhibitor, single point]	
Cc1ccc2sc(N(CCCN(C)C)C(=O)CCS(=O)(=O)c3ccccc3)nc2c1C	inconclusive [inhibitor, single point]	
CCOC(=O)c1[nH]c2c(c1C)C(=O)CC(c1ccco1)C2 (stereo not given)	inconclusive [inhibitor, single point]	
O=C(Nc1ccc(N2CCOCC2)c(Cl)c1)c1ccc([N+](=O)[O-])o1	inconclusive [inhibitor, single point]	
C1=C(CCNc2ncnc3c2[nH]c2ccccc23)CCCC1		inactive: 24.7%
CC(C)(C)c1cc(C(c2cccnc2)N2CCN(CCO)CC2)cc(C(C)(C)C)c1O (stereo not given)	inconclusive [inhibitor, single point]	
CCCC(=O)N1CCN(c2ccc(NC(=O)c3ccc([N+](=O)[O-])o3)cc2Cl)CC1	inconclusive [inhibitor, partial curve]	
O=C1N(c2ccccc2)C[C@@H]2C[C@@H](c3cc4ccccc4o3)N3CCC[C@@]123		inactive: 17.9%
COc1ccccc1CNC(=O)C(Cc1c[nH]c2ccccc12)NC(=O)OCc1ccccc1 (stereo not given)		inactive: 25.2%
COc1ccc(CC(N)c2csc(NC(=O)Nc3ccccc3C(C)C)n2)cc1 (stereo not given)	inconclusive [inhibitor, single point]	
COc1cccc(/C=C2/CCC(CN(C)C)C2=O)c1 (stereo not given)	inconclusive [inhibitor, single point]	
Cc1cc(Cl)n2c(nc3ccccc32)c1C#N	active: 25.9 µM	
CCOc1cccc2sc(NC(=O)CCS(=O)(=O)c3ccccc3)nc12	inconclusive [inhibitor, single point]	
Oc1cccc(Nc2nc(-c3ccccc3Cl)nc3ccccc23)c1		inactive: 32.4%
O=C1c2ccccc2C(=O)c2c1oc(C(F)(F)F)c2C(=O)c1ccccc1	active: 3.66 µM	
Cn1cnnc1Sc1ccc(/C=C/C(=O)c2ccc(O)cc2)cc1[N+](=O)[O-]	inconclusive [inhibitor, single point]	
O=C1[C@@H](Oc2ccccc2)[C@@H](c2cnc3ccccc3c2)N1c1ccccc1		inactive: -7.85%
COc1cc(NC(=O)COC(=O)c2ccc([N+](=O)[O-])s2)cc(OC)c1OC		inactive: 5.21%

SMILES	Potency	activity, negative = inhibition
COc1cc(O)cc(O)c1C(=O)/C=C/c1ccccc1		inactive: 21.2%
CC(=O)Nc1ccc(NC2=C/C(=N/S(=O)(=O)c3cccs3)c3ccccc3C2=O)cc1	active: 5.17 µM	
Cc1ccccc1Cn1ccc(NC(=O)c2cnn3c2NC(c2ccccc2)CC3C(F)(F)F)n1 (stereo not given)		inactive: 40.4%
Cc1ccc(NC(=O)Cc2cc(C(=O)O)c3ccccc3n2)c(C)c1		inactive: 43.9%
CC1(C)Cc2ccccc2C2=NNC(=O)C2=N1	active: 11.6 µM	
COc1cccc2c1C(=O)c1c(O)c3c(c(O)c1C2=O)CC(O)(C(C)=O)CC3OC1CC(N(C)C)C(O)C(C)O1 (stereo not given)	inconclusive [inhibitor, single point]	
Cc1nc2c(o1)C(=O)c1ccccc1C2=Nc1ccccc1	active: 4.11 µM	
Cc1ccc(NC(=S)/N=C(\N)Nc2nc(C)c3cc(C)ccc3n2)c(C)c1		inactive: 14.9%
Cc1oc2c(c1C(=O)N1CCC(C)CC1)C(=O)c1ccccc1C2=O	active: 20.6 µM	
O=C(NCc1cccnc1)/C(=C\c1ccc(-c2ccc(Br)cc2)o1)S(=O)(=O)c1ccccc1	inconclusive [inhibitor, single point]	
O=C(c1ccc(Cl)c(Cl)c1)N1CCC(=O)N(C(COCc2ccc(Cl)cc2)Cc2ccccc2)CC1 (stereo not given)		inactive: 18%
Cc1ccc(CS(=O)(=O)c2ncc(Cl)c(C(=O)Nc3ccc(OC(F)F)cc3)n2)cc1	inconclusive [inhibitor, single point]	
NC1=C(Br)C(=O)c2ncccc2C1=O	active: 4.61 µM	
O=C(Nc1cccc(NC(=O)c2ccccc2Cl)c1)c1ccc([N+](=O)[O-])o1	inconclusive [inhibitor, single point]	
O=C(N/N=C/c1cn(Cc2ccccc2)c2ccccc12)c1ccncc1		inactive: -21.6%
Cc1cccc(/C=C(\c2nc3ccccc3[nH]2)S(=O)(=O)c2ccccc2)c1	inconclusive [inhibitor, single point]	
CC(=O)Oc1ccccc1C(=O)C=Cc1cccc([N+](=O)[O-])c1	inconclusive [inhibitor, single point]	
